The target in test [1] is T1, Flag-p73β (Flag-tagged TAp73β) (human) (UniProt O15350).
T1 sequence: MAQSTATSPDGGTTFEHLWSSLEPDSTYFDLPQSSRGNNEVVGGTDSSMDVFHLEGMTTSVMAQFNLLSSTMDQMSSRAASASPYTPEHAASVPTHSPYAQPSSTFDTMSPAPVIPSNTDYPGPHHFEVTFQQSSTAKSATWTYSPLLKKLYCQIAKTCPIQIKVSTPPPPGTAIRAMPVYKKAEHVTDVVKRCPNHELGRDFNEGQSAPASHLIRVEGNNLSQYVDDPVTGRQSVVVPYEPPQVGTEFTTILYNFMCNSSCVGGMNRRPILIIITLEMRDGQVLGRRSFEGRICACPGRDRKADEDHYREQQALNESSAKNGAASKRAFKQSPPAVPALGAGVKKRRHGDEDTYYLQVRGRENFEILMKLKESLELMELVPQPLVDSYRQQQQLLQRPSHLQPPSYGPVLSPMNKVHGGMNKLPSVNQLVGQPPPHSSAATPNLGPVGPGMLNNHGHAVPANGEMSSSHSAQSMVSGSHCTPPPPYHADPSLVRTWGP
Kind of test: co-IP; HCT116 p53-/- cells transfected with Flag-p73β alone or with GFP-NGFR for 30 h; cytoplasmic and nuclear fractions separated, then co-IP and immunoblot.

Chains of the proteins cited; added tags and fusions are not shown. Lines headed by an entry give the natural chain unless they say otherwise; changes in a name come on top.
UniProt P08138: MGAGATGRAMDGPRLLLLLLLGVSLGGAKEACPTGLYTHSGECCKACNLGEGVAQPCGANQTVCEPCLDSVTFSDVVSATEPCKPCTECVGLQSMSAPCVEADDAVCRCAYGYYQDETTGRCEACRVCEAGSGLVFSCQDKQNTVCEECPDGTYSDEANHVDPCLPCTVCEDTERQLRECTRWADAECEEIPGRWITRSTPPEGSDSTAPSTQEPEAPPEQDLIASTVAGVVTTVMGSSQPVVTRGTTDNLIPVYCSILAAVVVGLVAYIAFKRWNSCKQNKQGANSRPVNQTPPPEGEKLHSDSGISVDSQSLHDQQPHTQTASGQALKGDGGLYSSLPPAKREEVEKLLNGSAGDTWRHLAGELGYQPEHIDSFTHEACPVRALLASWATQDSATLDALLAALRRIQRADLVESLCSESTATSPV
UniProt P11142: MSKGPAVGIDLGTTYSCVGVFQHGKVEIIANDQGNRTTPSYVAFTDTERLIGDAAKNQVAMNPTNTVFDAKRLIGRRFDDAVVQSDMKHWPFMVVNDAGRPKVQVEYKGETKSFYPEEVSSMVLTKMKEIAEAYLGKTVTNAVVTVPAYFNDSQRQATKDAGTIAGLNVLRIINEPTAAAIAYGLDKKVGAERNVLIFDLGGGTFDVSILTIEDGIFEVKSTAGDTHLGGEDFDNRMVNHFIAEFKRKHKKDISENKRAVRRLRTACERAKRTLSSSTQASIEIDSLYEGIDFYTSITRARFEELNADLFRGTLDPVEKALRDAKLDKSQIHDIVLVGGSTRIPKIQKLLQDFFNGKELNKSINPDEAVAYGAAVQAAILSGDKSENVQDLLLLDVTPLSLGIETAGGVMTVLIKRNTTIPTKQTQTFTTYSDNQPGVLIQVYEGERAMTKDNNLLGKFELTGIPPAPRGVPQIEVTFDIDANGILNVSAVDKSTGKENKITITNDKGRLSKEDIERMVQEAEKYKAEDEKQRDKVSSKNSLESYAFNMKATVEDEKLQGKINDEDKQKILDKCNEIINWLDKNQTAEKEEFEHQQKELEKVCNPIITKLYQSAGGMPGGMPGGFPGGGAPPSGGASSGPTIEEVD

Test [2] concerns the target T1, Flag-p73β (Flag-tagged TAp73β) (human). Put plainly: co-IP; MEF p53-/-;MDM2-/- cells transfected with Flag-p73β, GFP-NGFR or both; reciprocal co-IP and immunoblot.
The target is the same in test [3]. Kind of test: co-IP; H1299 cells co-transfected with Flag-p73β (Flag-p73) and GFP-NGFR or its fragments; reciprocal IP and immunoblot; lysis buffer 50 mM Tris/HCl pH 7.5, 0.5% NP-40, 1 mM EDTA, 150 mM NaCl.
The target of test [4] is T2, GST-p73 full-length (WT) (human) (UniProt O15350).
T2 sequence: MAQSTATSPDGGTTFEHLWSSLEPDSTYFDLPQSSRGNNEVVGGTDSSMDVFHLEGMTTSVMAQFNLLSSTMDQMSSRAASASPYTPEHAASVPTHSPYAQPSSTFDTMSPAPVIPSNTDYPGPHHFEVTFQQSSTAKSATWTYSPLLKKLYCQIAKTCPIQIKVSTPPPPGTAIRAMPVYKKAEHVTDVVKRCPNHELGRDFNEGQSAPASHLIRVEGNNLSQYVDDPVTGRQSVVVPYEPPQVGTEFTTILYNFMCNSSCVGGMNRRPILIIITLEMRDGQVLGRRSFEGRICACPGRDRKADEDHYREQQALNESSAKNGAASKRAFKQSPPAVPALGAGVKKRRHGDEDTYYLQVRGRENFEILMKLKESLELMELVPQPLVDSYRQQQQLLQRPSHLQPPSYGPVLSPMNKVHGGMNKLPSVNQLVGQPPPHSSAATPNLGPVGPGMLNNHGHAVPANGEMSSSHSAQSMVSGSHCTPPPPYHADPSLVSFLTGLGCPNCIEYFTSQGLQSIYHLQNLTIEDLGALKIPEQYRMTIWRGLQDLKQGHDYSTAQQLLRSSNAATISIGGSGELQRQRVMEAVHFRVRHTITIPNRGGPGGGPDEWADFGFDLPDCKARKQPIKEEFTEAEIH
Put plainly: pull-down; 500 ng GST-p73 or fragments (or GST only) on glutathione-Sepharose 4B beads incubated with cell lysates overexpressing Myc-NGFR, 4°C, 4 h; washed with 50 mM Tris/HCl pH 8.0, 0.5% NP-40, 1 mM EDTA, 150 mM NaCl, 10% glycerol; immunoblot with anti-NGFR; only the target purified.

For test [5], the target named is T3, GST-p73 aa 1–270 (human) (UniProt O15350).
T3 sequence: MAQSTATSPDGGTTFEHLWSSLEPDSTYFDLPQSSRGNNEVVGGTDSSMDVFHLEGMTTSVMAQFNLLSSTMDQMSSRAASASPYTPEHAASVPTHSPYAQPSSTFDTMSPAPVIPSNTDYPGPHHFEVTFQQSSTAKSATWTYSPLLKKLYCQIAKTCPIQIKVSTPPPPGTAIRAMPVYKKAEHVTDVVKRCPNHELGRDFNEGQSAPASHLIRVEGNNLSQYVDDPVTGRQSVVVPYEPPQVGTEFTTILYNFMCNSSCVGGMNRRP
Described as above.

The target of test [6] is T4, GST-p73 aa 1–70 (human) (UniProt O15350).
T4 sequence: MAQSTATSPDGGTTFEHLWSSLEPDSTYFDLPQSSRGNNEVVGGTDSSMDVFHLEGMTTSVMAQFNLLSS
The description is as above.

The target of test [7] is T2, GST-p73 full-length (WT) (human). Kind of test: pull-down; GST-p73α or fragments on glutathione-Sepharose 4B beads incubated with cell lysates, 4°C, 4 h; immunoblot for HSPA8 and LAMP2A (Supplementary Figure S4); only the target purified.
The target of test [8] is T3, GST-p73 aa 1–270 (human). The description is as above.
Test [9] addresses T4, GST-p73 aa 1–70 (human). Described as above.
In test [10] the target is T1, Flag-p73β (Flag-tagged TAp73β) (human). Kind of test: co-IP; HCT116 p53-/- cells transfected with Flag-p73β (IP anti-Flag) or GFP-NGFR (IP anti-GFP); immunoblot for endogenous HSPA8 and LAMP2a.
The target in test [11] is GFP-NGFR (human) (UniProt P08138). Described as above.
The target is the same in test [12]. Kind of test: co-IP; H1299 cells co-transfected with Flag-p73β (Flag-p73) and GFP-NGFR or its fragments; reciprocal IP and immunoblot; lysis buffer 50 mM Tris/HCl pH 7.5, 0.5% NP-40, 1 mM EDTA, 150 mM NaCl.

The text below walks through data of PMC7749740.

These are yes or no findings as the source states them, for the method shown. Binding seen in cells or lysates may run through a third protein. Some binding calls cover weakened binding; strength is not graded here. For some of these results: Tags and fused reporters may be left off the sequences shown.

On to “GFP-NGFR (from UniProt P08138 29-427) (receptor)”, for which the binding result in test [1], in test [2] and in test [3] was “binds” in each case.

For “GFP-NGFR-N (aa 1–272) (from UniProt P08138 29-272) (domain or fragment)”, the binding result in [3] was “binds”.

Regarding “Myc-NGFR (from UniProt P08138 29-427) (receptor)”, the figures for the binding result (in test [4]; with GST-p73 aa 1–270 (human) [5]; in the test with GST-p73 aa 1–70 (human) [6]) were “binds”, “binds” and “no binding”, respectively.

For the molecule “heat shock 70 kDa protein 8 (HSPA8), endogenous (from UniProt P11142 1-646)”, the binding result (in [7]; with GST-p73 aa 1–270 (human) [8]; in the test with GST-p73 aa 1–70 (human) [9]; in test [10]; with GFP-NGFR (human) [11]) was “binds” each time.

B1: Flag-p73β (Flag-tagged TAp73β) (protein, UniProt O15350-2 1-499)
chain: MAQSTATSPDGGTTFEHLWSSLEPDSTYFDLPQSSRGNNEVVGGTDSSMDVFHLEGMTTSVMAQFNLLSSTMDQMSSRAASASPYTPEHAASVPTHSPYAQPSSTFDTMSPAPVIPSNTDYPGPHHFEVTFQQSSTAKSATWTYSPLLKKLYCQIAKTCPIQIKVSTPPPPGTAIRAMPVYKKAEHVTDVVKRCPNHELGRDFNEGQSAPASHLIRVEGNNLSQYVDDPVTGRQSVVVPYEPPQVGTEFTTILYNFMCNSSCVGGMNRRPILIIITLEMRDGQVLGRRSFEGRICACPGRDRKADEDHYREQQALNESSAKNGAASKRAFKQSPPAVPALGAGVKKRRHGDEDTYYLQVRGRENFEILMKLKESLELMELVPQPLVDSYRQQQQLLQRPSHLQPPSYGPVLSPMNKVHGGMNKLPSVNQLVGQPPPHSSAATPNLGPVGPGMLNNHGHAVPANGEMSSSHSAQSMVSGSHCTPPPPYHADPSLVRTWGP
Take B1: the binding entry in the test with GFP-NGFR (human) [12] is reported as “binds”.
